# Patent US20260274910A1, “SINGLE FUSION PROTEIN AND PHARMACEUTICAL COMPOSITION” (MEDI&GENE INC., priority 2023, published 2026)
# What was measured:
# cAMP (cyclic AMP) = experiment: cAMP level (hTRF) in undifferentiated 3T3-L1 cells; assay type: cell-based, mouse; conditions: undifferentiated 3T3-L1, 100 nM with 0.5 mM IBMX, 30 minutes; compared with Control and SEQ ID NO: 5
# Description: To observe the functionality of the fusion proteins related to lipid metabolism, the 3T3-L1 mouse pre-adipocyte cell line was used as the cell line itself (undifferentiated) or by differentiating into adipocytes. Differentiation into the adipocytes was performed by inducing primary differentiation for the 3T3-L1 cells in a medium containing DMEM, 10% FBS, 10 μg/ml insulin, 0.5 mM IBMX (3-Isobutyl-1-methylxanthine), and 1 μM dexamethasone for 2 days, and inducing secondary differentiation with a medium containing DMEM, 10% FBS, and 10 μg/ml insulin for the remaining 4 days. The adipocytes in which differentiation was finally completed were treated with the test substances at a concentration of 100 nM for 30 hours (Control: PBS) and then used for each test.
# Next, changes in cAMP (cyclic AMP), a signaling mediator contributing to lipolysis and energy metabolism were evaluated in the undifferentiated adipocytes. The undifferentiated cells were treated with the test substances at a concentration of 100 nM (Control: PBS) with 0.5 mM IBMX for 30 minutes. Thereafter, the level of cAMP was evaluated by the hTRF (Homogeneous Time Resolved Fluorescence) method (using CAMP Gs dynamic kit from Cisbio). As a result of the measurement, it was confirmed that the level of cAMP was higher in the groups treated with the fusion proteins (SEQ ID NOs: 1, 2, 3, 7, 13, 14, 15) and shortened sequences (sequences 9, 10, 11) compared with the Control and His tag-wild-type substance (1-81) (SEQ ID NO: 5) (FIG. 7).
# MDA-MB-231 cell line = experiment: Reactive oxygen generation (DCF-FA) in breast cancer cells; assay type: cell-based; conditions: 1 μM, 24 hours; compared with Control and SEQ ID NO: 5
# Description: In addition, in order to examine generation of reactive oxygen that plays an important role in cancer cell death, each test substance was treated to the MDA-MB-231 cell line at a concentration of 1 μM (Control: PBS) for 24 hours. Then, the cells were stained with DCF-FA and their fluorescence values were observed and compared at 485/535 nm.
# [1] = tested on: MDA-MB-231 triple-negative breast cancer cell line; experiment: MTT cell viability in breast cancer cells; assay type: cell-based; conditions: 1 μM, 48 hours; compared with Control (PBS), SEQ ID NO: 4 and SEQ ID NO: 5
# Description: Next, the test substances, the fusion proteins (SEQ ID NO: 1, 2, 3, 7, 14, 15) and shortened sequences (SEQ ID NOs: 9, 10, 11, 12) were treated to MDA-MB-231 triple-negative breast cancer cell line at a concentration of 1 μM (Control: PBS) for 48 hours. Thereafter, the cells were washed with PBS once, and the cells were suspended in serum-free buffer. The MTT (3-[4,5-dimethylthiazol-2-yl]-2,5-diphenyltetrazolium bromide) substance was added thereto at 0.5 mg/ml and incubated at 37° C. for 2 hours. Then, they were washed with PBS once, and the cells were lysed with DMSO for 15 minutes. The solution was transferred to a new plate and the absorbance was measured at 590 nm using a microplate reader.
# [2] = tested on: db/db mouse model (C57BLKS/J-db/db); experiment: Leptin receptor-deficient diabetes model study I; assay type: in vivo; conditions: 5 mg/kg subcutaneous 6 times a week for 4 weeks
# Excerpt: In order to confirm efficacy of the fusion proteins in a diabetic pathological condition in which impaired glucose tolerance by genetically inducing mutation to a leptin receptor gene, a 7-week-old db/db mouse model (C57BLKS/J-db/db) was used. The mice after a one-week acclimation period were divided into a control (n=7) and an experimental group (fusion protein SEQ ID NO: 2; n=8). The mice was provided with a normal diet, and for 4 weeks, PBS to the control, and the fusion protein to the experimental group were subcutaneously injected at a dose of 5 mg/kg 6 times a week, and the efficacy thereof was observed.
# [3] = tested on: Akt and S6 (phosphorylation, p-Akt/p-S6) in C2C12 mouse skeletal muscle cell line; experiment: Akt and S6 phosphorylation (western blot) in C2C12 muscle cells; assay type: cell-based; conditions: 2 hours; for Activity of Akt and S6 compared with control and His tag-wild-type substance (SEQ ID NO: 5): differentiated cell line
# Description: In order to evaluate functions related to muscle loss diseases, each test substance was treated to the undifferentiated C2C12 mouse skeletal muscle cell line (mouse myoblast cell line) or the cell line in which differentiation into myotubes was completed. Differentiation of the cell line into myotubes was performed by conducting addition of 2% horse serum to culture medium and replacement with new medium every two days for a total of 4 days.
# To the undifferentiated or differentiated cell lines, the test substances, fusion proteins (SEQ ID NOs: 1, 2, 3, 7, 14 and 15) were treated at a concentration of 100 nM (Control: PBS treated group) for 2 hours. Thereafter, the cells were immediately washed once and the cells were lysed with RIPA buffer (Radioimmunoprecipitation assay buffer). The activity of Akt and S6 (phosphorylation, p-Akt/p-S6) was observed by western blot. Akt phosphorylation is a well-known marker of activation of cell signaling pathways, and is an indicator of beneficial effects on muscle cells such as promotion of glucose metabolism and promotion of muscle biosynthesis. Similarly, S6 phosphorylation is a well-known marker of mTOR activity, and the activity of mTOR is an indicator showing muscle biosynthesis and various cell signaling pathways.
# [4] = tested on: diet-induced obesity-induced impaired glucose tolerance mice; experiment: Diet-induced obesity-induced impaired glucose tolerance model (glucose tolerance test); assay type: in vivo, C57BL/6N mice; conditions: 5.0 mg/kg 1 hour before intraperitoneal 20% glucose, after 8 hours fasting
# Description: In order to secure an impaired glucose tolerance model, conditions causing glucose metabolic disorders in mice by diet-induced obesity were designed. As an animal model, 5-week-old male C57BL/6N mice were obtained and after undergoing an acclimation period by providing a normal diet for 1 week, they were used, and the housing conditions were maintained at 18~24° C., 50~60% humidity, and ad libitum feeding with free access to feed and water was carried out during both the acclimation period and experimental period.
# In order to induce impaired glucose tolerance to the mice which had undergone the acclimation period of 1 week, a high-fat diet was supplied to induce obesity. The high-fat diet was provided by preparing as Table 10 below.
# The obesity-induced mice were divided into a control group (negative control group; n=14) and an experimental group (fusion protein SEQ ID NOs: 14, 15; No. 14: n=9, No. 15: n=9) and subjected to fasting for 8 hours. Thereafter, PBS to the control, and the fusion protein to the experimental group were administered at a concentration of 5.0 mg/kg, and after 1 hours, a 20% glucose solution was intraperitoneally injected. Blood was collected at each time point and analyzed using a glucometer.
# [5] = C2C12 differentiated into myotubes, 100 nM, control PBS
# [6] = undifferentiated C2C12, 100 nM, control PBS
# [7] = Table 6, C2C12, 100 nM, differentiation state not given
Molecule,Level of cAMP (cAMP (cyclic AMP)),Reactive oxygen generation (MDA-MB-231 cell line),Cell viability (MTT) [1],Muscle tissue ratio (% ± SD) ([2]; control 47.59 ± 3.43),Fat tissue ratio (% ± SD) ([2]; control 52.41 ± 3.43),Muscle function (grip strength test) ([2]; versus control),"Activity (% increase compared to control) Differentiated Akt [3, 5]","Activity (% increase compared to control) Differentiated S6 [3, 5]",Activity of Akt and S6 compared with control and His tag-wild-type substance (SEQ ID NO: 5) ([3]; 100 nM),"Activity (% increase compared to control) Undifferentiated Akt [3, 6]","Activity (% increase compared to control) Undifferentiated S6 [3, 6]",Blood glucose variation over time (GLUAUC) compared with the control group [4],"Activity (% increase compared to control) Akt [3, 7]","Activity (% increase compared to control) S6 [3, 7]"
SEQ ID NO: 2: Recombinant protein: Shortened substance (1-60)-repeat-type linker-Fc fusion (mutant modified) (protein) GSDQSENVDRGAGSIREAGGAFGKREQAEEERYFRAQSREQLAALKKHHEEEIVHHKKEIGGGGSGGGGSGGGGS[human IgG1 Fc with changes omitted here],higher,generated higher,significantly low,49.90 ± 3.26%,50.10 ± 3.26%,significantly improved,360%,469%,significantly higher activity,269%,257%,–,–,–
SEQ ID NO: 14: Recombinant protein: Shortened substance (1-60)-Shortened linker-Fc fusion (protein) GSDQSENVDRGAGSIREAGGAFGKREQAEEERYFRAQSREQLAALKKHHEEEIVHHKKEIGGGGS[human IgG1 Fc with C220Q (EU numbers) omitted here],higher,generated higher,significantly low,–,–,–,–,–,significantly higher activity,–,–,significant difference,601%,247%
